In PubChem BioAssay AID1745847 (National Center for Advancing Translational Sciences (NCATS), 2022):
About 670 (32%) of roughly 2,100 compounds were called active. Inconclusive results, whose numbers are uncertain, are shown with a selection of clear calls. The call rests on the fitted dose curve; in most records, active means well fitted inhibition curve with a large enough effect; inconclusive means small, poorly fitted or top-dose-only effect; inactive means no such curve, though single readings can be large or run the other way. Where the call is inconclusive, the potency comes from a doubtful curve fit.

test: CMV-Luciferase Counterscreen for Inhibitors of ATXN expression; details: HEK-293 CMV-luciferase reporter, luminescence, 24 h; series mostly up to 57.5 µM; further: nearly all actives have a fitted effect of over 55% in size
On the % scale 0 is the no-effect control and ±100 the full control effect; potency means the concentration at half of the fitted maximal effect; tags describe the fitted curve by direction and shape.

SMILES | Potency | activity change, negative = inhibition
CC(=O)C(=Cc1cccc(C#N)c1)C(=O)c1ccccc1 | inconclusive: 28.2 µM [inhibitor, single point] | –
COc1ccccc1/C=C/CN1CCCC(CO)(Cc2cccc(Cl)c2)C1 (stereo not given) | inconclusive: 17.8 µM [inhibitor, single point] | –
O=C(NC(Nc1ncc(S(=O)(=O)c2ccc([N+](=O)[O-])cc2)s1)(C(F)(F)F)C(F)(F)F)c1ccc(Cl)cc1 | inconclusive: 3.16 µM [inhibitor, full curve, poor fit] | –
Cc1cc(N2CCN(C)CC2)ccc1NC(=O)c1ccc(-c2ccc(Cl)cc2)o1 | inactive | –
O[C@@H]1[C@@H](O)C=C2CCN3Cc4cc5c(cc4[C@H]1C23)OCO5 (stereo not given in full) | inconclusive: 25.1 µM [inhibitor, single point] | –
COc1cccc(/C=C2\SC(=S)N(CCCC(=O)N(CCO)c3ccccc3)C2=O)c1 | inconclusive: 3.55 µM [inhibitor, single point] | –
COc1cc(NC(=O)c2cccc3c(-c4cnn(C)c4)coc23)cc(OC)c1OC | inconclusive: 28.2 µM [inhibitor, single point] | –
CC1Cc2cc(-c3csc(NC(=O)Cc4cccs4)n3)ccc2N1S(C)(=O)=O (stereo not given) | active: 1.41 µM | –
CN(Cc1cnc2nc(N)nc(N)c2n1)c1ccc(C(=O)N[C@@H](CCC(=O)O)C(=O)O)cc1 | active: 0.0063 µM | –
Cc1cccc(NC2=Nc3ccccc3N3C2=Nc2c(c(C)nn2-c2ccccc2)C3c2ccc(O)c(O)c2)c1 (stereo not given) | – | inactive: -12.9% [at 11.4 µM]
Cn1nc(C(=O)N2CCN(c3ccc(Cl)cc3)CC2)c2c1-c1ccccc1S(=O)(=O)C2 | inconclusive: 2.82 µM [inhibitor, partial curve] | –
O=C(CCCN1C(=O)/C(=C/c2ccccc2Cl)SC1=S)NNC(=O)c1ccc(Cl)cc1 | active: 3.98 µM | –
Cc1ccccc1NC(=O)CSc1n[nH]c(-c2ccccn2)n1 | inconclusive: 7.94 µM [inhibitor, full curve, poor fit] | –
COCc1ccc(CN2CCC(C(=O)Nc3cccc(-c4cccc(Cl)c4)c3)CC2)o1 | active: 14.1 µM | –
CCCc1cc(=O)n2[nH]cc(-c3ccc(Cl)cc3)c2n1 | inconclusive: 1.41 µM [inhibitor, partial curve, poor fit] | –
COC(=O)c1cn(NC(=O)c2cc([N+](=O)[O-])ccc2F)c(=O)c2ccccc12 | inconclusive: 1.58 µM [inhibitor, full curve, poor fit] | –
Cc1cccc(NC(=O)c2cc(-c3ccccn3)nc3ccccc23)c1C | inconclusive: 15.8 µM [inhibitor, partial curve] | –
COc1cccc(C2CC(c3c(-c4ccccc4)c4cc(Cl)ccc4[nH]c3=O)=NN2S(C)(=O)=O)c1OC (stereo not given) | inconclusive: 4.47 µM [inhibitor, single point] | –
CCOc1ccc2[nH]c3c(NCCc4ccc(OC)c(OC)c4)ncnc3c2c1 | inconclusive: 17.8 µM [inhibitor, partial curve, poor fit] | –
COc1ccc(CNC(=O)CSc2nc(-c3ccccc3)cc(-c3cccs3)c2C#N)cc1 | – | inactive: 16% [at 11.4 µM]
CCc1ccc(CNC(=O)C2CCN(c3nnc(C)c4c(C)n(-c5ccc(C)cc5)nc34)CC2)cc1 | inactive | –
COc1ccc(OCC(=O)N/N=C/c2cccc3cccnc23)cc1 | inconclusive: 17.8 µM [inhibitor, partial curve, poor fit] | –

SMILES | Potency | activity change, negative = inhibition
COC(=O)c1ccccc1COc1cccn2c(N(C)Cc3cccs3)c(C)nc12 | inconclusive: 22.4 µM [inhibitor, single point] | –
CC(=O)NC(c1cccc([N+](=O)[O-])c1)c1ccc2cccnc2c1O (stereo not given) | inconclusive: 0.355 µM [inhibitor, full curve, poor fit] | –
CN(C)CCNc1ccc(CO)c2sc3ccc(O)cc3c(=O)c12 | active: 0.631 µM | –
CCCCn1c(SCC(=O)Nc2cc(NC(=O)c3ccco3)ccc2C)nc2ccccc2c1=O | inactive | –
Cc1ncc(CO)c(/C=N/Nc2ccc(C(F)(F)F)cn2)c1O | inconclusive: 3.98 µM [inhibitor, full curve, poor fit] | –
Nn1cnnc1N/N=C/c1cc(Br)cc(Br)c1O | inconclusive: 3.55 µM [inhibitor, partial curve] | –
Cc1ccc(/C=C2\SC(=S)N(CCCC(=O)Nc3ccc(O)cc3)C2=O)cc1 | active: 3.16 µM | –
O=C(N/N=C/c1cc(Cl)ccc1O)c1cccnc1 | active: 0.631 µM | –
COc1cc(OC)cc(-c2cc3nc(C)c(CCC(=O)NCc4ccccc4)c(C)n3n2)c1 | active: 11.2 µM | –
CN1CCN(c2cc(-c3cc(O)c4ncccc4c3)ccn2)CC1 | active: 14.1 µM | –
CC1(Cc2ccc(C(F)(F)F)o2)C(=O)Nc2ccc(-c3cccc(C(F)(F)F)c3)cc21 (stereo not given) | inconclusive: 35.5 µM [inhibitor, single point] | –
O=C1CCCC(O)=C1C=NCc1ccccc1 | – | inactive: 6.36% [at 11.4 µM]
Cc1ccsc1/C=C/C1=Cc2c(sc(NC(=O)CSc3n[nH]c(N)n3)c2C#N)C(C)(C)C1 | inactive | –
CC(C)n1cnc2c(N(C)c3ccccc3)nc(N(CCN(C)C)Cc3ccccc3)nc21 | inconclusive: 35.5 µM [inhibitor, single point] | –
CCc1nc2ccc(C(=O)Nc3cccc(NS(C)(=O)=O)c3)cn2c1N(C)CCCc1ccccc1 | inconclusive: 22.4 µM [inhibitor, single point] | –
Cc1cc(C)c2c(N)c3cccc(C)c3nc2n1 | active: 10 µM | –
O=C(c1c(F)cccc1F)N1CCCC(c2nc(-c3ccc(Cl)cc3)no2)C1 (stereo not given) | inconclusive: 12.6 µM [inhibitor, partial curve, poor fit] | –
Cn1c(=O)c2c(nc(SCCN3CCOCC3)n2Cc2cccc3ccccc23)n(C)c1=O | – | inactive: -18.8% [at 11.4 µM]
Cc1ccc2cc(C3C(C#N)=C(N)Oc4c3ccc3cccnc43)c(=O)[nH]c2c1 (stereo not given) | inconclusive: 8.91 µM [inhibitor, partial curve, poor fit] | –
CC(C)(CO)NCc1c(OCc2ccc(Cl)cc2)ccc2ccccc12 | inactive | –
OCCN(Cc1ccccc1)CC(O)COc1ccc(-c2ccccc2)cc1 (stereo not given) | inactive | –
COc1ccc(C2=NN(C(=O)c3ccc(Cl)c([N+](=O)[O-])c3)C(c3ccccc3)C2)cc1 (stereo not given) | inconclusive: 17.8 µM [inhibitor, partial curve, poor fit] | –

SMILES | Potency | activity change, negative = inhibition
COc1ccc2nc(C)c3c(c2c1)OC(C(C)(Cl)Br)C3 (stereo not given) | inconclusive: 3.16 µM [inhibitor, partial curve, poor fit] | –
C=CCn1c(CNc2ccc(C)cc2)nnc1SCC(=O)N/N=C/c1ccc(O)cc1O | inconclusive: 15.8 µM [inhibitor, partial curve, poor fit] | –
COc1ccc(N=Cc2cc3c(cc2O)OC(N)=C(C#N)C3c2ccccc2)cc1 (stereo not given) | – | inactive: -22.6% [at 11.4 µM]
CCOC(=O)c1c(NC(=O)CSc2nnnn2-c2ccccc2)sc2c1CC(C)(C)NC2(C)C | inconclusive: 7.08 µM [inhibitor, partial curve, poor fit] | –
CC1(C)c2[nH]c3ccccc3c2C[C@H]2C(=O)N(Cc3cccc(F)c3)C(=O)N21 | active: 20 µM | –
NC(N)=N/N=C/c1ccc(Cl)c(Cl)c1 | inconclusive: 39.8 µM [inhibitor, single point] | –
COc1ccc(N2C3=C(CC4=C2CC(C)(C)CC4=O)C(=O)CC(C)(C)C3)cc1 | – | inactive: -2.52% [at 11.4 µM]
COC1=C(C)C(O)=C(C(=O)/C=C/c2ccccc2)C(=O)C1(C)C | inconclusive: 3.16 µM [inhibitor, single point] | –
O=C(COc1ccccc1Cl)Nc1ccc(N2CCN(C(=O)c3ccccc3)CC2)cc1 | active: 3.55 µM | –
O=C(N/N=C/c1c(O)ccc2ccccc12)c1cccc(C(F)(F)F)c1 | active: 2.82 µM | –
O=C(Oc1c(CN2CCOCC2)cc(Cl)c2cccnc12)c1cccs1 | inconclusive: 8.91 µM [inhibitor, partial curve, poor fit] | –
CC(C)(C)n1nnnc1C(c1cccs1)N(Cc1ccc(Cl)cc1)CC1CCCO1 (stereo not given) | inconclusive: 14.1 µM [inhibitor, single point] | –
O=C(NC1C=CS(=O)(=O)C1)c1sc2ccccc2c1Cl (stereo not given) | – | inactive: -11.1% [at 11.4 µM]
Clc1ccc(SCc2cc(N3CCOCC3)nc(-c3ccccn3)n2)cc1 | inconclusive: 7.08 µM [inhibitor, partial curve, poor fit] | –
C=CCOc1ccc(CNc2ccc3[nH]c(=O)[nH]c3c2)cc1OC | inactive | –
Cc1onc(-c2ccccc2)c1C(=O)Nc1ccc(S(=O)(=O)NC(C)(C)C)cc1 | inconclusive: 15.8 µM [inhibitor, single point] | –
O=C(CSCc1ccc(Cl)cc1)Nc1cc([N+](=O)[O-])ccc1O | inconclusive: 6.31 µM [inhibitor, single point] | –
CCN(CC)CCC(c1ccc2c(c1)OCO2)c1c(OC)cc(OC)c2c(-c3ccccc3)cc(=O)oc12 (stereo not given) | inconclusive: 17.8 µM [inhibitor, single point] | –
N#Cc1nc(COc2ccc(-c3ccccc3)cc2)oc1NCc1cccnc1 | active: 3.55 µM | –
COc1cc(Nc2ncc3c(n2)CCN(C(=O)Nc2ccc(C(C)C)cc2)C3)cc(OC)c1OC | – | inactive: -3.4% [at 11.4 µM]
CCOc1cc(/C=N/Nc2cc(C)nc(-n3nc(C)cc3C)n2)ccc1O | inconclusive: 0.282 µM [inhibitor, full curve, poor fit] | –
